Test system: HBV in HepG2.2.15 cells
Assay: microbe, parasite or virus in culture
Format: cell-based, Hepatitis B virus

| Compound | IC50 (Hepatitis B virus, HepG2.2.15, 144 h, HepG2.2.15, 6 days, read-out: IC50, intracellular HBV DNA) [nM] | Relative intracellular HBV DNA level (Folds), AVERAGE (HepG2.2.15 (figure 4e), 10 μM, 6 days) [Folds] |
| --- | --- | --- |
| Cc1cc(C2CCCCC2)n(O)c(=O)c1 [Ciclopirox, 6-cyclohexyl-1-hydroxy-4-methyl-2(1 H)-pyridone] | 800 ± 100 |  |
| C=C1[C@H](CO)[C@@H](O)C[C@@H]1n1cnc2c(=O)[nH]c(N)nc21 [ETV, entecavir] |  | 0.03445 |

Source: PMC6522524 (Nature Communications, 2019)
